In PubChem BioAssay AID686979 (National Center for Advancing Translational Sciences (NCATS), 2013):
The whole screen tested about 420,000 compounds, of which about 50,000 (12%) were called active. The shares of active, inactive and inconclusive entries below differ from those in the screen. Calls follow the shape of the dose curve; as a rule, active = well fitted inhibition curve with a large enough effect; inconclusive = small, poorly fitted or top-dose-only effect; inactive = flat fitted curve, though single readings scatter. No potency is given beside an inconclusive call; the fits are too rough.

Test: qHTS for Inhibitors of human tyrosyl-DNA phosphodiesterase 1 (TDP1): qHTS in cells in presence of CPT; also: nearly all actives have a fitted effect of over 55% in size
Conditions: chicken DT40 Tdp1-/-;hTDP1 cells + 20 nM CPT, ATP luminescence, 48 h; activity change, negative = growth inhibition: at 46.2 µM (top of the series) unless noted
Method in brief: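 Cell growth measured by CellTiter-Glo luminescence after a minimum 48 h, 37 C compound exposure with 20 nM CPT in Tdp1-knockout DT40 cells stably expressing hTDP1, seeded 400/well; qHTS titration format.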
% is scaled to controls: 0 for no effect and ±100 for the full control effect; potency is read from the fitted curve at half-maximal effect; tags tell the direction and shape of the fitted curve.

Compound	Potency	activity change, negative = growth inhibition
COc1ccccc1CN(C)C(=O)c1cccc(S(=O)(=O)N2CCCC2)c1	inconclusive [inhibitor, single point]	–
CCOC(=O)C1Nc2ccc(Br)cc2C2C=CCC12 (stereo not drawn)	inconclusive [inhibitor, single point]	–
COC(CNC(=O)c1ccc2c(=O)n(Cc3ccc4c(c3)OCO4)c(=S)[nH]c2c1)OC	–	inconclusive: -19.1% [inhibitor]
O=C(CNC(c1ccccc1)c1ccccc1)Nc1cc([N+](=O)[O-])ccc1Cl	active: 20.6 µM	–
CCC(C)(C)n1nnnc1CN(Cc1ccc(Cl)cc1)Cc1ccco1	inconclusive [inhibitor, single point]	–
CS(=O)(=O)N1CCC2(CCN(c3ccccc3)CC2)CC1	inactive	–
Cc1cccc(C)c1NC(=O)c1cccc2c1-c1ccccc1C2=O	inconclusive [inhibitor, single point]	–
O=[N+]([O-])c1ccc(-c2c(-c3ccccc3)ncc3ccc(F)cc23)cc1	inconclusive [inhibitor, single point]	–
O=[N+]([O-])c1ccc(O)c(-c2nc(-c3ccccc3)c(-c3cccs3)[nH]2)c1	active: 20.6 µM	–
CN(C)c1ccc(-c2sc(Nc3ccccc3)n[n+]2-c2ccc(F)cc2)cc1	inconclusive [inhibitor, partial curve]	–
O=C(Nc1ccc([N+](=O)[O-])cc1Cl)c1cc(Br)ccc1O	active: 0.794 µM	–
CCN1CCCc2cc(CN(CCN3CCOCC3)C(=S)Nc3cc(F)cc(F)c3)ccc21	inconclusive [inhibitor, single point]	–
O=C(CSc1nc(C2CCCCC2)nc2ccccc12)N1CCCC1	inconclusive [inhibitor, single point]	–
COc1ccc(NS(=O)(=O)c2cc(-c3onc(C)c3C)ccc2C)c(OC)c1	inconclusive [inhibitor, single point]	–
CCC1CN(C(=O)N2CCC(C(=O)NCCCc3ccccc3)CC2)c2cc(C)ccc2O1 (stereo not drawn)	inconclusive [inhibitor, single point]	–
Cc1ccccc1NC(=O)Cn1c(=O)n(CCC(=O)N2CCc3ccccc3C2)c(=O)c2ccccc21	active: 16.4 µM	–
O=C(Cn1ncc2c1-c1ccccc1OC2)Nc1cccc(Cl)c1	inconclusive [inhibitor, single point]	–
CCOC(=O)c1ccc(NC(=O)CCc2nc(-c3cccc(C)c3)no2)cc1	inconclusive [inhibitor, single point]	–
O=[N+]([O-])c1ccccc1S(=O)(=O)N(CC1CO1)c1ccccc1 (stereo not drawn)	inconclusive [inhibitor, single point]	–
O=c1[nH]c2ccc(NCc3ccc(F)cc3)cc2[nH]1	inactive	–
Cc1cc(Cl)c2oc(C(=O)N3CCN(c4cnccn4)CC3)c(C)c2c1	inconclusive [inhibitor, partial curve]	–
O=c1[nH][nH]cc1C=Nc1ccc(Oc2ccccc2)cc1	inactive	–
O=C(c1ccc(Br)cc1)c1cc([N+](=O)[O-])ccc1N1CCOCC1	active: 0.82 µM	–

Compound	Potency	activity change, negative = growth inhibition
Cc1ccc(C)c(C(=O)N2CCC(C3(c4ccccn4)NC(=O)N(CC4CCCO4)C3=O)CC2)c1 (stereo not drawn)	inactive	–
OCc1cccc(-c2csc(C(O)c3ccccc3)n2)c1 (stereo not drawn)	inconclusive [inhibitor, single point]	–
CCCCCCCSc1ncnc2[nH]ncc12	inconclusive [inhibitor, single point]	–
CCOc1ccc(N2Cc3ncccc3C2=O)cc1	inconclusive [inhibitor, full curve, poor fit]	–
CC1CCCCN1C(=S)NC(=O)c1ccco1 (stereo not drawn)	inconclusive [inhibitor, single point]	–
O=C(COc1ccccc1C(=O)Nc1ccccc1)Nc1cccc(F)c1	inconclusive [inhibitor, single point]	–
Cc1cc(NC(=O)Cn2cc(C(F)(F)F)cc(Cl)c2=O)no1	inactive	–
Cc1ccc(C2CC(=O)n3nc(-c4ccc(F)cc4)nc3S2)cc1 (stereo not drawn)	inconclusive [inhibitor, single point]	–
Cc1ccc(S(=O)(=O)N(Cc2ccc([N+](=O)[O-])cc2)C(=O)N2CCN(C)CC2)cc1	inactive	–
Cc1cc(Nc2ccccc2)nn1C(=O)c1ccccc1	inconclusive [inhibitor, single point]	–
CC(C)N(C(=O)COC(=O)CNC(=O)c1ccc(Br)cc1)c1ccccc1	inactive	–
CC1(C)CC(=O)C=C(c2ccc(F)cc2OCc2ccccc2)C1	inconclusive [inhibitor, single point]	–
Cc1ccc(C(=O)Nc2cccc([N+](=O)[O-])c2)cc1S(=O)(=O)Nc1cccc(C(=O)O)c1	inconclusive [inhibitor, single point]	–
CN(CCNC(=O)c1cc2c(-c3ccccc3F)nn(C)c2s1)C1CCCCC1	inconclusive [inhibitor, single point]	–
Cc1ccc(NC(=O)Cn2c(=O)n(CCC(=O)N3CCc4ccccc4C3)c(=O)c3ccccc32)c(C)c1	active: 20.6 µM	–
COc1ccc(/C=C/C(=O)N(CCC(N)=O)c2ccccc2)cc1S(=O)(=O)N1CCOCC1	inconclusive [inhibitor, full curve, poor fit]	–
O=C1OC(c2ccccc2)=N/C1=C\C=C\c1ccccc1[N+](=O)[O-]	inconclusive [inhibitor, single point]	–
CCN(CC)CCCNC(=O)c1cc2c(Cl)nc3ccccc3c2s1	active: 18.4 µM	–
COc1ccc(-n2nc(C(=O)NCCc3ccc(Cl)cc3)c3c4ccccc4n(C)c3c2=O)cc1	active: 8.2 µM	–
N#Cc1ccc(OCC(O)CN2CCN(C(c3ccccc3)c3ccccc3)CC2)cc1 (stereo not drawn)	inconclusive [inhibitor, single point]	–
Cc1ccc2nc(C(Cl)(Cl)Cl)nc(N/N=C/c3ccc([N+](=O)[O-])cc3)c2c1	inconclusive [inhibitor, single point]	–
c1nc(NCCN2CCOCC2)c2cc(-c3ccoc3)ccc2n1	inconclusive [inhibitor, partial curve, poor fit]	–
CCN1C(=O)[C@H]2[C@@H](c3ccc(C)cc3)N[C@]3(CCCN(Cc4ccc(Cl)cc4)C3=O)[C@H]2C1=O	inconclusive [inhibitor, partial curve]	–

Compound	Potency	activity change, negative = growth inhibition
CCOC(=O)c1cc2c(ccn2C)n1CC(=O)N1CCN(c2cccc(C(F)(F)F)c2)CC1	active: 16.4 µM	–
CC1CCCCC1=NNC(=O)c1ccccc1 (stereo not drawn)	inactive	–
N#C/C(=C\c1ccccc1OCC(=O)O)c1nc2ccccc2[nH]1	inactive	–
Cc1ccc(NS(=O)(=O)c2c(C)nc3sccn3c2=O)cc1	inconclusive [inhibitor, partial curve]	–
CC1CN(C(=O)c2nn(C)cc2[N+](=O)[O-])CC(C)O1 (stereo not drawn)	inconclusive [inhibitor, single point]	–
Cc1ccc(-c2cnc(C3CC3)o2)cc1S(=O)(=O)Nc1cccc(C#N)c1	active: 5.8 µM	–
CCOC(=O)c1c(NC(=S)NNS(=O)(=O)c2ccc(Br)cc2)sc2c1CCCCC2	inactive	–
CCC1=C(OC(=O)N(CC)CC)N2C(=O)OC(=NCC3CC3)[C@]2(Cc2ccccc2)[C@H]2C1=CC[C@H]1C(=O)N(CC(=O)OC)C(=O)[C@H]12	inconclusive [inhibitor, single point]	–
COc1cc(NC(=O)Cn2c(-c3ccccc3)cc(C(C)=O)c2C)cc(OC)c1	active: 20.6 µM	–
Cc1cccc(CN2CCSc3sccc3C2=O)c1	inactive	–
Cn1c(SCC(=O)NC2CCCC2)nnc1-c1ccco1	inactive	–
c1ccc(CCCCN2C(Nc3ccccc3)=NC[C@@H]2Cc2ccccc2)cc1	inconclusive [inhibitor, single point]	–
COc1cccc(N2CCN(C(=O)c3ccc(OC)c(S(=O)(=O)NC4CC4)c3)CC2)c1	inconclusive [inhibitor, single point]	–
COc1ccc(/C=C/C(=O)c2ccc(O)cc2)cc1COc1ccc(F)cc1	inconclusive [inhibitor, single point]	–
O=c1cc(-c2ccsc2)oc2ccc(-c3ccc4cc[nH]c4c3)cc12	inconclusive [inhibitor, single point]	–
N#Cc1ccc(-c2ccc(OCC(=O)NCCc3ccccc3)cc2)cc1	inconclusive [inhibitor, single point]	–
CCOC(=O)C(C)c1n[nH]c(=O)c2ccccc12 (stereo not drawn)	inconclusive [inhibitor, single point]	–
COCCN1C(=O)c2oc3cc(C)c(C)cc3c(=O)c2C1c1ccc(O)cc1 (stereo not drawn)	inactive	–
COc1ccccc1/C=C/C=N/n1c(-c2ccc(C)cc2)n[nH]c1=S	inconclusive [inhibitor, single point]	–
O=C(COc1ccc(Cl)cc1Cl)Nc1ccccc1F	inconclusive [inhibitor, partial curve]	–
CCn1c(COc2ccc3c(c2)CCCC3)nnc1SCC(=O)Nc1ccc(C(=O)OC)cc1	inconclusive [inhibitor, single point]	–
CCN(CC)C(=O)COc1ccc(/C(C)=N/Nc2ncc(Cl)cc2Cl)cc1	inconclusive [inhibitor, single point]	–
